Reference: patent US9096585B2 (Icahn School of Medicine at Mount Sinai, priority 2010, dated 2015)
Marks after values point to notes of the source that are not given here.

How the values were obtained:
influenza A virus = test: microbe, parasite or virus in culture; conditions: determined by HA assay, Table 3; for Inhibition of FluA: A549
[1] = tested on: influenza B/Yamagata/88 virus; test: Influenza B virus replication in A549 cells; assay type: cell-based; conditions: concentration of 11.2 μM, compared with influenza A virus
influenza A/WSN/33 virus = test: Plaque-reduction assays with influenza A/WSN/33 virus in cell lines of different species, with or without pyrimidine supplements; conditions: 10 μM A3; 10-fold excess base; seen only in MDCK cells and not in A549 cells
[2] = tested on: IFN-13 and other antiviral genes (ISG56, IRF7, RIG-I, and TNF-α); test: Quantitative RT-PCR of IFN and antiviral genes in A549 cells

| SMILES | Inhibition of FluA (influenza A virus) | also measured |
| --- | --- | --- |
| CN(c1nc(-c2ccccc2)cs1)C1CCS(=O)(=O)C1 (stereo not drawn) [Compound A35-2] | none ** | – |
| CN(C)c1nc(-c2ccc(Br)cc2)cs1 [Compound A35-5] | ~65% ** | IC50 (influenza A virus; Influenza A virus, A549, read-out: IC50 (A549), A549): 12.3 µM |
| Nc1nc(-c2ccc(Cl)cc2)cs1 [Compound A35-3] | none ** | – |
| CN(c1nc(-c2ccc(Br)cc2)cs1)C1CCS(=O)(=O)C1 (stereo not drawn) [Compound A35] | – | inhibition of influenza B virus [1]: less significant inhibition |
| O=C(CSc1nnc(-c2cccnc2)o1)N1CCCC1 [Compound A3-11, 2-(5-(pyridin-3-yl)-1,3,4-oxadiazol-2-ylthio)-1-(pyrrolidin-1-yl)ethanone] | none ** | – |
| Cc1[nH]c2ccc(-c3nnc(SCC(=O)N4CCCC4)o3)cc2c1C [Compound A3] | – | effect of uracil on the inhibitory effect of A3 (influenza A/WSN/33 virus): reverse the inhibitory effect; induction of IFN-13 and other antiviral genes (ISG56, IRF7, RIG-I, and TNF-α) [2]: no induction |
| COc1ccc(-c2nnc(SCC(=O)N3CCCC3)o2)cc1 [Compound A3-8, 2-(5-(4-methoxyphenyl)-1,3,4-oxadiazol-2-ylthio)-1-(pyrrolidin-1-yl)ethanone] | none ** | – |
